Assay [1] deals with EGFP-ERα (UniProt P03372). The assay can be described thus: co-IP; tagged proteins transiently expressed in HEK 293T; immunoprecipitation by one tag, Western blot by the other (in some panels vice versa); in Fig. 2g, 4h and 4i cells treated with 10 μM MG132 for 8 h; in Fig. 4h FOXK2 overexpressed, in Fig. 4i FOXK2 knocked down by siRNA. In general terms: Immunoblotting shows a protein as a band on a membrane.

Protein sequences, listed by entry. Tags and fused reporters are not part of them.
UniProt P03372: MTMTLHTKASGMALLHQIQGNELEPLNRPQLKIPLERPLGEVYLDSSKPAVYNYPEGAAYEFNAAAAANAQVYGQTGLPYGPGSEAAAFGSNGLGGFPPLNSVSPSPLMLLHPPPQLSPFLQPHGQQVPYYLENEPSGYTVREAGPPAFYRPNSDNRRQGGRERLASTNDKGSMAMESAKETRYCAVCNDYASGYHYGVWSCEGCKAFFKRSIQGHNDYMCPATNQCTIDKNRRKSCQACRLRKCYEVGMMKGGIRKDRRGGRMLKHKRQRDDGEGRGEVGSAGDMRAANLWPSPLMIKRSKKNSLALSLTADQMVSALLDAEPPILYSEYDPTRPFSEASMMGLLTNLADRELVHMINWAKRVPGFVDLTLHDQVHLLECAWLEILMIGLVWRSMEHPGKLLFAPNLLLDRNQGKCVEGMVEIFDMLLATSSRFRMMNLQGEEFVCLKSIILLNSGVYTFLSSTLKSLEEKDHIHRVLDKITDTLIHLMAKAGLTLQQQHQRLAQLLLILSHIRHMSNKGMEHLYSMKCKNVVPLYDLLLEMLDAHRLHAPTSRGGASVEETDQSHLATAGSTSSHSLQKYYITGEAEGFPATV
UniProt Q99728: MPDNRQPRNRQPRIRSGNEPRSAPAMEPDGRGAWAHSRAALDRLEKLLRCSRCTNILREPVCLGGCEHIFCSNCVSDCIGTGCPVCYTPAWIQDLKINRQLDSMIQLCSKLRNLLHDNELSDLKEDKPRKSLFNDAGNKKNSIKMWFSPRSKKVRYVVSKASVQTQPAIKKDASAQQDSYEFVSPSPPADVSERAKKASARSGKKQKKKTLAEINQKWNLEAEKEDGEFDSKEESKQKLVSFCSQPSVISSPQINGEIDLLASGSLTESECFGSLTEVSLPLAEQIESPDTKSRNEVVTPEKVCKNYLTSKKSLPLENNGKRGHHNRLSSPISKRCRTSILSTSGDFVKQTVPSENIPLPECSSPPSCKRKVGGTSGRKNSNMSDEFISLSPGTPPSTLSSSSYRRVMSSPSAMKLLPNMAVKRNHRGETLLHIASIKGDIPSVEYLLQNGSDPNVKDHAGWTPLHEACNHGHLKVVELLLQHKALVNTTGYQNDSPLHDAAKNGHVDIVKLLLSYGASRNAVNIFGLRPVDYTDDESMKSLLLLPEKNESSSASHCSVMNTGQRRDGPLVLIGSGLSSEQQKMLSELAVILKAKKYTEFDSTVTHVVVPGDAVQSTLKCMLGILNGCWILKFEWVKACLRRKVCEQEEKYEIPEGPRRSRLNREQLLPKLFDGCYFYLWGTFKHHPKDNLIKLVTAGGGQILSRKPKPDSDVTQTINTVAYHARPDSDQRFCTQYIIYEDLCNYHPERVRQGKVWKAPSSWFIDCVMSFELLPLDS

Assay [2] deals with HA-BARD1 (UniProt Q99728). Described as above.

Results are given in words; binding and its absence hold for the method and conditions named. In cells and extracts the contact can be indirect. Some results given as binding are weak or reduced against the parent protein; the word gives no strength. Sequences can lack the tags named with a protein.

Two molecules from paper PMC4350111 can be followed below.

B1: Flag-tagged FOXK2 Δ3 (domain or fragment, UniProt Q01167 128-353)
chain: QRRGAPPLQLPRVCTFRFPSTNIKITFTALSSEKREKQEASESPVKAVQPHISPLTINIPDTMAHLISPLPSPTGTISAANSCPSSPRGAGSSGYKVGRVMPSDLNLMADNSQPENEKEASGGDSPKDDSKPPYSYAQLIVQAITMAPDKQLTLNGIYTHITKNYPYYRTADKGWQNSIRHNLSLNRYFIKVPRSQEEPGKGSFWRIDPASESKLIEQAFRKRRPR
Regarding B1, the results for the binding result in assay [1] and in assay [2] were “binds” and “no binding”, respectively.

B2: Flag-tagged FOXK2 Δ2 (domain or fragment, UniProt Q01167 1-128)
chain: MAAAAAALSGAGTPPAGGGAGGGGAGGGGSPPGGWAVARLEGREFEYLMKKRSVTIGRNSSQGSVDVSMGHSSFISRRHLEIFTPPGGGGHGGAAPELPPAQPRPDAGGDFYLRCLGKNGVFVDGVFQ
In the case of B2, the binding result in assay [1] is “no binding”; in assay [2] it was “binds”.
